“And” between values parts separate entries of the source, which are not always exact repeats. Equal entries are not always repeated. About 50,000 (12%) of roughly 420,000 compounds were called active. Inconclusive means that the source gave no clear call. Such entries were picked first, then a sample of the others. Calls come from the whole dose curve; as a rule, active = well fitted inhibition curve with a large enough effect; inconclusive = small, poorly fitted or top-dose-only effect; inactive = flat fitted curve, though single readings scatter. A potency beside an inconclusive call is a rough fit, not a confirmed value.
assay: qHTS for Inhibitors of human tyrosyl-DNA phosphodiesterase 1 (TDP1): qHTS in cells in presence of CPT; conditions: chicken DT40 Tdp1-/-;hTDP1 cells + 20 nM CPT, ATP luminescence, 48 h; activity change, negative = growth inhibition: at 46.2 µM (top of the series) unless noted; note: nearly all actives have a fitted effect of over 55% in size
Summary of the method: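 Chicken DT40 Tdp1-/- cells complemented with human TDP1, 400 cells/well, exposed to compounds plus 20 nM camptothecin for at least 48 h at 37 C; viability read as ATP content by CellTiter-Glo luminescence.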
% is set by controls: 0 for no effect and ±100 for the full control effect; potency is the fitted concentration of half-maximal effect; tags give direction and shape of the fitted curve.

| Compound | Potency | activity change, negative = growth inhibition |
| --- | --- | --- |
| Cc1ccc2c(c1)C(Cc1ccccc1F)C(=O)N2 (stereo not drawn) | inconclusive: 23.1 µM [inhibitor, single point] |  |
| CCCN(CC(=O)Nc1ccccc1C)C(=O)Cc1c[nH]c2ccccc12 | inconclusive: 29.1 µM [inhibitor, single point] |  |
| COc1ccc(NS(=O)(=O)c2cccc(NC(=O)c3ccc(Cl)nc3)c2)cc1 | active: 1.16 µM |  |
| COc1ccc(CNC(=O)CSc2nc3cccnc3s2)cc1 |  | inactive: -0.824% |
| Cc1cccc(C(=O)Nc2cc(-c3nc4cccnc4s3)ccc2C)c1 | inconclusive: 29.1 µM [inhibitor, single point] |  |
| CC(=O)Nc1ccc(SC[C@H](C)CN2CC[C@H](C(C)(C)C)CCC2=O)cc1 | inconclusive: 35.5 µM [inhibitor, single point] and inconclusive: 29.1 µM [inhibitor, single point] |  |
| O=C(CSc1nc(=O)n2ccccc2n1)NCc1ccc(F)cc1 |  | inactive: -3.46% |
| COC(=O)CN(c1ccc(F)cc1)S(=O)(=O)c1ccccc1 |  | inactive: -5.58% |
| CCOC(=O)Cc1csc(NC(=O)COc2ccc(N(C)S(=O)(=O)c3cccs3)cc2)n1 | inconclusive: 29.1 µM [inhibitor, single point] |  |
| CC1CCC(NC(=O)c2ccc3c(c2)OCO3)CC1 (stereo not drawn) | inconclusive: 29.1 µM [inhibitor, single point] |  |
| CSc1ccc(-c2sc(Nc3cccc4ccccc34)n[n+]2-c2ccccc2)cc1 | inconclusive: 23.1 µM [inhibitor, single point] |  |
| Cc1nn(CCC(=O)NCc2ccc(Cl)cc2)c(=O)c2nn(-c3ccccc3)c(C)c12 |  | inconclusive: -33.9% [inhibitor] |
| Cc1ccc2nc(-c3ccc(NC(=O)C(C)N4C(=O)c5ccccc5C4=O)cc3)sc2c1 (stereo not drawn) |  | inactive: 0.305% |
| CC1=C(C(=O)Nc2ccccc2)C(c2ccco2)C(C#N)=C(SCC(=O)Nc2cccc(C)c2C)N1 (stereo not drawn) | inconclusive: 29.1 µM [inhibitor, single point] |  |
| Fc1ccc(Cn2nnc3ccccc32)cc1 | inconclusive: 23.1 µM [inhibitor, partial curve, poor fit] |  |
| O=S(=O)(N1CCN(c2nc(-c3cccs3)nc3ccccc23)CC1)C(F)(F)F | inconclusive: 35.5 µM [inhibitor, single point] |  |
| COc1ccc(-c2nc3ccc(C4=NNC(=O)CC4C)cc3[nH]2)cc1 (stereo not drawn) | inconclusive: 26.6 µM [inhibitor, single point] |  |
| CCn1c(SCC(=O)N2CCC(C)CC2)nnc1-c1ccc(S(=O)(=O)N2CCN(C)CC2)cc1 | inconclusive: 2.91 µM [inhibitor, single point] |  |
| [N-]=[N+]=NC[C@H](Cc1ccccc1)N1CC[C@@H](NC(=O)OCc2ccccc2)CCC1=O | inconclusive: 20.6 µM [inhibitor, single point] |  |
| COc1ccc(S(=O)(=O)N2CCSC2c2ccccc2)cc1 (stereo not drawn) | inconclusive: 29.1 µM [inhibitor, single point] |  |
| O=S(=O)(NCc1ccccn1)c1cccc2nsnc12 |  | inactive: 3.99% |
| CCN1C(=O)C2C(c3ccccc3F)NC(Cc3ccc(O)cc3)(C(=O)OC)C2C1=O (stereo not drawn) | inconclusive: 13 µM [inhibitor, partial curve] |  |
| O=C1CS/C(=N/N=C2CCCC2)N1 |  | inactive: 1.62% |

| Compound | Potency | activity change, negative = growth inhibition |
| --- | --- | --- |
| COc1ccc(/C=C2\N=C(SC)N(c3ccccc3OC)C2=O)cc1 | inconclusive: 29.1 µM [inhibitor, single point] |  |
| COc1ccc(-c2onc(C)c2C)cc1S(=O)(=O)NCc1ccc(C)o1 | active: 2.91 µM |  |
| Cc1cc(-c2nnc(SCC(=O)Nc3ccc(Br)cc3F)n2N)n[nH]1 |  | inactive: -17.1% |
| COc1ccc(NC(=O)CSc2nc3ccccc3n2CC(=O)N2CCCCC2C)cc1 (stereo not drawn) | inconclusive: 9.2 µM [inhibitor, single point] |  |
| O=C(N/N=C/c1cccnc1)c1cccc(NC(=O)c2ccc(Cl)cc2)c1 |  | inactive: -1.62% |
| Cc1ccc(CN=c2c([N+](=O)[O-])nn(-c3cccc(Cl)c3)n2O)cc1 | inconclusive: 18.4 µM [inhibitor, partial curve] |  |
| COc1ccc(/C=N/NC(=O)c2ccccc2F)cc1CN1CCN(c2ccc(F)cc2)CC1 |  | inactive: -26.9% |
| Cc1nn(-c2ccc(Cl)c(Cl)c2Cl)c(=O)c2ccccc12 | inconclusive: 16.4 µM [inhibitor, single point] |  |
| CN(CCC#N)C(=O)COC(=O)c1ccccc1C(=O)c1ccc(Cl)c([N+](=O)[O-])c1 | active: 16.4 µM |  |
| COCC(C)NC(=O)c1cc2c(=O)n3cccc(C)c3nc2s1 (stereo not drawn) |  | inactive: -17.7% |
| Cc1ccc(Cn2c(=N)c(C(=O)NC3CCCCC3)cc3c(=O)n4ccccc4nc32)cc1 | active: 5.8 µM |  |
| CCOC(=O)c1ccc(-c2ccc(/C=C(\C#N)c3nc4ccc(C)cc4[nH]3)o2)cc1 | active: 23.1 µM |  |
| O=S(=O)(Nc1c(O)ccc2ccccc12)c1cccc2ccccc12 | inconclusive: 29.1 µM [inhibitor, single point] |  |
| CCOc1cccc(CC(=O)NCc2ccc3c(c2)CCN3C(C)=O)c1OCC |  | inactive: 7.74% |
| CCC(C)NC(=O)CCc1c(C)nc2c(c(C)nn2-c2ccc(C)cc2)c1C (stereo not drawn) | active: 14.6 µM |  |
| Cc1ccc2[nH]cc(C(c3ccccc3)c3ccc(C)s3)c2c1 (stereo not drawn) | inconclusive: 20.6 µM [inhibitor, single point] |  |
| NC(=O)CCCn1c(C(=O)c2cc(Cl)c(N)c(Cl)c2)c2ccc(C(F)(F)F)cc2[n+]1[O-] | inconclusive: 23.1 µM [inhibitor, single point] |  |
| Cn1c(N)c(C(=O)COC(=O)c2ccc(-c3ccccc3)cc2)c(=O)n(C)c1=O | inconclusive: 29.1 µM [inhibitor, single point] |  |
| C=CCOC(=O)C1=C(C)NC(=O)NC1c1cn(-c2ccccc2)nc1-c1cccs1 (stereo not drawn) | inconclusive: 16.4 µM [inhibitor, single point] |  |
| Cc1c(Cl)cccc1NC(=O)CC(c1ccc(F)cc1)N1Cc2ccccc2C1=O (stereo not drawn) | active: 23.1 µM |  |
| O=C(NCCCc1nc2ccccc2n1Cc1ccccc1Cl)c1ccco1 | active: 29.1 µM |  |
| COc1ccc(CN2C(=O)c3ccccc3C(/C=N\OCc3ccc(F)cc3)C2=O)cc1 (stereo not drawn) | inconclusive: 25.9 µM [inhibitor, single point] |  |
| CCN(c1ccc(Cl)cc1)S(=O)(=O)c1nnc(NC(=O)c2ccccc2C)s1 | active: 16.4 µM |  |

| Compound | Potency | activity change, negative = growth inhibition |
| --- | --- | --- |
| CC(=O)c1ccc(NC(=O)CCC(=O)N2CC(C)Oc3ccc(C)cc32)cc1 (stereo not drawn) | inconclusive: 11.6 µM [inhibitor, partial curve] |  |
| O=C(NN=Cc1ccccc1OC(F)F)c1ccc(NS(=O)(=O)c2cccs2)cc1 | inconclusive: 23.1 µM [inhibitor, single point] |  |
| CC12CCC(=O)C=C1CCC1C2C(O)CC2(C)C(c3csc(N)n3)CCC12 (stereo not drawn) | active: 3.66 µM |  |
| CCOC(=O)N1CCC(NC(=O)c2ccc(CS(=O)c3cccc(Cl)c3)o2)CC1 (stereo not drawn) | inconclusive: 29.1 µM [inhibitor, single point] |  |
| COc1ccc(CNC(=O)C2CCCN(S(=O)(=O)c3ccc(Br)s3)C2)cc1 (stereo not drawn) | inconclusive: 29.1 µM [inhibitor, single point] |  |
| CNS(=O)(=O)c1cccc(C(=O)OCc2cc(=O)n3cc(Br)ccc3n2)c1 | inconclusive: 9.2 µM [inhibitor, partial curve] |  |
| CN(Cc1ccccc1)c1nc(CN2CCOCC2)nc2scc(-c3ccccc3)c12 | inconclusive: 16.4 µM [inhibitor, single point] |  |
| CC(CNC(=O)C1CCN(C(=O)N2CCOc3ccc(Cl)cc32)CC1)c1ccccc1 (stereo not drawn) | inconclusive: 29.1 µM [inhibitor, single point] |  |
| NC(=O)c1sc2nc3c(c(-c4ccco4)c2c1N)CCC3 | inconclusive: 13 µM [inhibitor, partial curve] |  |
| COc1cc(CCCN[C@H](CN)Cc2ccccc2)cc(OC)c1OC | inconclusive: 0.461 µM [inhibitor, full curve, poor fit] |  |
| COc1ccc(NC(=O)CN(Cc2ccco2)Cc2ccco2)cc1S(=O)(=O)N1CCCCC1 | active: 23.1 µM |  |
| CCn1c(=O)c([N+](=O)[O-])c(N2CCSCC2)c2ccccc21 | inconclusive: 20.6 µM [inhibitor, single point] |  |
| CCOC(=O)CC[C@H](NC(=O)Cn1cnc(C(=O)Nc2ccc(C)c(C)c2)n1)C(=O)OCC |  | inconclusive: -31.1% [inhibitor] |
| Cc1cccc2c1N(C(=O)CN1C(=O)c3ccccc3C1=O)C(C)(C)c1ssc(=S)c1-2 |  | inactive: -11.5% |
| CCc1ccc2c(c1)/C(=C/C(=O)c1cccs1)C(=O)N2 | active: 3.26 µM |  |
| Cc1ccccc1CSCc1nc2ccccc2[nH]1 | inconclusive: 10.3 µM [inhibitor, partial curve] |  |
| CCN(CC(=O)Nc1c(F)cccc1F)C(=O)CSCc1ccc(C)cc1 | inconclusive: 20.6 µM [inhibitor, single point] |  |
| O=C(CCN1CCN(C/C=C/c2ccccc2)CC1)Nc1ccccc1Cl | inconclusive: 29.1 µM [inhibitor, single point] |  |
| Cc1ccc(C2=Nc3c(ccc4ccccc34)C(c3ccncc3)=NN2)cc1 | active: 18.4 µM |  |
| Cc1ccc2sc(NC(=O)C3CC3)nc2c1C | inconclusive: 20.6 µM [inhibitor, single point] |  |
| CCC(=O)Nc1cccc(-c2nc3ccccc3c(=O)o2)c1 | inconclusive: 29.1 µM [inhibitor, single point] |  |
| CCN1C(=O)[C@H]2[C@@H](c3ccc(-c4cccc(Cl)c4)c(OC)c3)N3CCCC[C@@]3(C(=O)OC)[C@H]2C1=O | inconclusive: 18.4 µM [inhibitor, single point] |  |

Source: PubChem BioAssay AID686979 (National Center for Advancing Translational Sciences (NCATS), 2013)
